In PubChem BioAssay AID1745853 (National Center for Advancing Translational Sciences (NCATS), 2022):
Where “and” joins values, the source holds several entries; their conditions need not be identical. Equal values may be shown once. Some of the results follow. These are further read-outs of the screen, such as a control signal, another cell line or another target. No call is given for them.

Tests used:
Test in all cases: Primary Screen for Target Class Profiling of Small Molecule Inhibitors of Methyltransferases
[1] = target: Glycine N-methyltransferase (Homo sapiens) (UniProt Q14749); conditions: purified enzyme, MTase-Glo SAH luminescence; measured here: GNMT inhibition; at 40 µM; stronger effect = lower value
In short: (§1)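 Each enzyme was assayed with SAM and its substrate. SAH formation detected by MTase-Glo luminescence; single-point 40 uM screen[…].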

[2] = target: Guanidinoacetate N-methyltransferase (Homo sapiens) (UniProt Q14353); conditions: purified enzyme, MTase-Glo SAH luminescence; measured here: GAMT inhibition; at 40 µM; stronger effect = lower value
In short: as §1

[3] = target: Histamine N-methyltransferase (Homo sapiens) (UniProt P50135); conditions: purified enzyme, MTase-Glo SAH luminescence; measured here: HNMT inhibition; at 40 µM; stronger effect = lower value
In short: as §1

[4] = target: Nicotinamide N-methyltransferase (Homo sapiens) (UniProt P40261); conditions: purified enzyme, MTase-Glo SAH luminescence; measured here: NNMT inhibition; at 40 µM; stronger effect = lower value
In short: as §1

[5] = target: Phenylethanolamine N-methyltransferase (Homo sapiens) (UniProt P11086); conditions: purified enzyme, MTase-Glo SAH luminescence; measured here: PNMT inhibition; at 40 µM; stronger effect = lower value
In short: as §1
% is set by controls: 0 for no effect and ±100 for the full control effect.

Structure (SMILES) | activity change, negative = inhibition [1] [%] | activity change, negative = inhibition [2] | activity change, negative = inhibition [3] [%] | activity change, negative = inhibition [4] | activity change, negative = inhibition [5]
CC(=O)c1ccc2c(c1)N(CCCN(C)C)c1ccccc1S2 | -7.52 | 3.67% | -8.62 | -30.4% | 7.51%
COc1cccc(-c2cc(=O)c3ccccc3o2)c1N | -19.7 | 2.29% | -6.57 | -12.9% | -3.48%
CC1(C(=O)NC2CCCCC2)Cn2nc(-c3ccco3)cc2C(=O)N1c1ccc(F)cc1F (stereo not drawn) | 4.45 | -2.48% | 4.49 | 5.45% | 0.321%
COc1ccc2nc([C@H]3CCN(C4CCCCC4)C3)[nH]c2c1 | -7.32 | -4.49% | -56.9 | -23.4% | -10.7%
COC(=O)c1cc2n(n1)CC(C)(C(=O)NC1CCCCC1)N(c1ccc(C)cc1)C2=O (stereo not drawn) | 4.96 | 0.099% | 7.7 | 4.41% | 5.6%
CCCn1cnc2c(NCc3ccccc3)nc(N[C@H](CC)CO)nc21 | 1.66 | 4.83% | 13.6 | -14.8% | 2.92%
O=C(c1cc(F)ccc1F)N1CCCC(Cc2noc(-c3ccccc3)n2)C1 (stereo not drawn) | -2.4 | 1.49% | 0.27 | -5.18% | -3.61%
O=c1cc(N2CCOCC2)nc2c3ccccc3ccn12 | -28.2 | -9.19% | -29.5 | -28.4% | -17.9%
NC(=O)c1cccc2cn(-c3ccc([C@@H]4CCCNC4)cc3)nc12 | -7.4 | -1.09% and -6.43% | -62.1 | -59.8% and -25.9% | -16.2% and -32.3%
O=c1[nH]c2cc([N+](=O)[O-])c([N+](=O)[O-])cc2[nH]c1=O | -1.61 | 10.5% | 9.46 | -4.81% | 2.78%
COc1ccc(Nc2cnc3ccc(-c4ccc(F)cc4)nn23)cn1 | -10.4 | -4.63% | -9.96 | -3.08% | -20.5%
CCNC(=O)NC1(CCOC)CCN(S(=O)(=O)c2cc(OC)ccc2OC)CC1 | 4.19 | 0% | 14.4 | 4.92% | 8.58%
CC(C)[C@@H]1CN(C(=O)CCCn2cncn2)C[C@H]1NS(=O)(=O)N(C)C | -4.22 | -8.96% | -1.94 | -16.5% | -12.7%
COC(=O)c1cc2n(n1)CC(C)(C(=O)NC1CCCC1)N(Cc1ccccc1OC)C2=O (stereo not drawn) | -6.41 | -0.425% | 0.832 | -3.49% | -2.02%
COc1ccc(-n2c(=O)[nH]c3cc(C(=O)NCc4ccc(Cl)cc4)sc3c2=O)nc1OC | -8.98 | -1.6% | 7.65 | -36.7% | 2.85%
COC1OC(=O)C2=C1C1(C)CCCC(C)(C)C1CC2O (stereo not drawn) | 4.24 | 3.6% | 10.3 | -11.2% | 3.66%
O=C(CCc1ccc(O)cc1)c1c(O)cc(O)cc1O | -13.4 | 2.13% | 1.2 | -10.8% | -3.34%
C=CC1(C)CC2CCC3C(C)(C(=O)O)CCCC3(C)C2=CC1=O (stereo not drawn) | 5.63 | 4.28% | 11.4 | -9.85% | 0.55%
N#Cc1cccc(-c2c[nH]c3ncnc(N4CCOCC4)c23)c1 | -81.1 | -58.2% | -88 | -73.1% | -69.4%
COc1cc(OC)cc(-c2onc(C)c2C(=O)NCc2ccccc2C)c1 | -5.78 | -5.26% | -3.95 | -11.2% | -5.95%

Structure (SMILES) | activity change, negative = inhibition [1] [%] | activity change, negative = inhibition [2] | activity change, negative = inhibition [3] [%] | activity change, negative = inhibition [4] | activity change, negative = inhibition [5]
O=C(NCCCc1ccccc1)C1CCCCN1Cc1ccc(-c2ccsc2)cc1 (stereo not drawn) | -6.74 | -9.65% | -5.19 | -10.1% | -8.89%
Oc1cccc(Nc2ncnc3sc4c(c23)CCCC4)c1 | – | -9.7% | – | -49.7% | -23.1%
O=C1NC2(CCN(C(=O)c3cccnc3)C2)Oc2ccccc21 (stereo not drawn) | -5 | -8.12% | -1.8 | -10.8% | -9.41%
Cc1noc(C)c1Cc1ccc(C(=O)N2CC(N(C)Cc3cccnc3)C2)o1 | -6.29 | -0.427% | -0.819 | -6.76% | -1.29%
CN(C)C(=O)c1ccc(OC2CCN(C(=O)c3ccc(C(F)(F)F)cc3)CC2)nc1 | -3.07 | 6.41% | 2 | -3.97% | 12.9%
CC(=O)C1=C(O)C=C2Oc3c(C(C)=O)c(O)c(C)c(O)c3[C@]2(C)C1=O | -1.39 | 7.75% | 8.2 | -5.81% | 9.57%
O=C(NC1CCCC1)c1cc(-c2cccc(C(F)(F)F)c2)c2cccn2n1 | -10.1 | -10.6% | -6.44 | -11.8% | -7.6%
Cc1nc(N)ncc1C(=O)N(C)Cc1cn[nH]c1-c1ccccc1 | 6.64 | 0.139% | 0.606 | 2.86% | -12.6%
COc1cccc(CNC(=O)N2Cc3c(sc4c3CCCC4)-n3cccc3C2c2cccc(F)c2)c1 (stereo not drawn) | -5.08 | 1.26% | 1.25 | -10.9% | -0.756%
Cc1cccc(C2c3cccn3-c3sc4c(c3CN2C(=O)NC(C)C)CCCC4)c1 (stereo not drawn) | -9.17 | 7.44% | 2.84 | -14.8% | -1.73%
CC(=O)OCC1=C[C@@H]2OC(=O)C3=CO[C@@H](O[C@@H]4O[C@H](CO)[C@@H](O)[C@H](O)[C@H]4O)[C@H]1[C@@H]32 | 4.38 | 5.97% | 7.56 | -7.61% | 2.64%
CC1(C(=O)NC2CCCCCC2)Cn2c(ccc2-c2ccco2)C(=O)N1CCc1ccccc1 (stereo not drawn) | -8.7 | 3.22% | -4.58 | -10.1% | -3.85%
Clc1ccc2c(c1)C1C=CCC1C(c1cccc3ccccc13)N2 (stereo not drawn) | -12 | -4.72% | -10.7 | -15.6% | -12%
Cc1ccc(F)c(OC2(C(=O)O)CCN(S(=O)(=O)c3cnn(C)c3)CC2)c1 | 0.617 | -0.105% | 0.293 | 4.42% | 2.48%
O=C(/C=C/N1C[C@@H]2C[C@@H]1CN2c1ccccn1)c1ccccc1O | -4.3 | -1.66% | 2.65 | -17.1% | -2.46%
Cc1cccc(-c2n[nH]n3c2nc(=O)c2ccc(C(=O)NCc4ccc5c(c4)OCO5)cc23)c1 | -15.1 | 3.27% | -2.91 | -5.14% | -7%
COc1ccccc1CNc1nc2c(-c3ccccc3)nnn2c2ccccc12 | 1.62 | 0.388% | -1.13 | 0.667% | -3.51%
CN(CC(=O)N(Cc1ccc(C2CCCCC2)cc1)c1ccc(C(=O)O)cc1)S(=O)(=O)c1c(F)c(F)c(F)c(F)c1F | -74.8 | -8.4% | -3.66 | -52.3% | 4.31%
CN[C@@H]1[C@H](O[C@H]2[C@H](O[C@@H]3[C@@H](O)[C@H](O)[C@@H](N=C(N)N)[C@H](O)[C@H]3N=C(N)N)O[C@@H](C)[C@]2(O)CO)O[C@@H](CO)[C@H](O)[C@H]1O | -0.857 | -0.593% | 5.71 | -5.24% | 1.86%
COc1cc2c(cc1O)CC(O)(CO)C(CO)C2c1ccc(OC2OC(CO)C(O)C(O)C2O)c(OC)c1 (stereo not drawn) | 0 | -3.32% | -3.85 | -15.3% | 0.293%

Structure (SMILES) | activity change, negative = inhibition [1] [%] | activity change, negative = inhibition [2] | activity change, negative = inhibition [3] [%] | activity change, negative = inhibition [4] | activity change, negative = inhibition [5]
Clc1cccc2c1NC(c1ccc(Br)cc1)C1CC=CC21 (stereo not drawn) | -10 | -3% | -7.86 | -7.13% | -10.6%
Cc1ccc(S(=O)(=O)NCCn2c(C(F)(F)F)nc3ccccc32)cc1 | -6.45 | 0.355% | 0.459 | 6.59% | 6.09%
Cc1ccc(C)c(NC(=O)[C@@H]2CCCN2S(=O)(=O)c2cccc3cccnc23)c1 | -19.3 | 1.13% | 6.94 | -13.9% | -2.12%
CN1CC(=O)N(C2CCCCC2)Cc2c(NCCO)ncnc21 | -8.22 | -9.11% | -5.22 | -18.2% | -10.8%
CC(C)CNC(=O)c1ccc2c(=O)n(CC(C)C)c3nn(CC(=O)NC(C)(C)C)c(=O)n3c2c1 | 3.59 | 0.977% | 6.22 | 2.56% | 4.3%
CC(C)Oc1ccc(CNC(=O)c2cc3n(n2)CC(C)(C(=O)NC2CCCCCC2)N(C)C3=O)cc1 (stereo not drawn) | 0.789 | 1.91% | -8.71 | -0.209% | -4.34%
COc1cc2c(cc1OC)CN(C(=O)/C=C/c1c(-c3ccccc3)n(C)c3ncccc13)CC2 | -40.4 | -2.85% | -9.73 | -59.9% | -34.7%
CC1(C)CC[C@]2(C(=O)O[C@@H]3O[C@H](CO)[C@@H](O)[C@H](O)[C@H]3O)CC[C@]3(C)C(=CCC4[C@@]5(C)CC[C@H](O[C@@H]6O[C@H](C(=O)O)[C@@H](O[C@@H]7O[C@H](CO)[C@@H](O)[C@H](O)[C@H]7O)[C@H](O)[C@H]6O[C@@H]6O[C@H](CO)[C@@H](O)[C@H](O)[C@H]6O)C(C)(C)C5CC[C@]43C)C2C1 (stereo partly drawn) | 1.04 | 14.1% | 9.11 | 1.41% | 9.81%
CCCn1c(=O)c2ccc(C(=O)NC(C)C)cc2n2c(=O)n(CC(=O)NC(C)(C)C)nc12 | 1.77 | -0.732% | 2.56 | -5.16% | -2.71%
NC1CCCCN(Cc2ccc(Cl)c(F)c2)C1 (stereo not drawn) | -0.143 | 0.957% | -22.7 | -4.02% | -16.7%
CCCN1C(=O)c2cc(C(=O)NCc3ccc(OC)c(OC)c3)nn2CC1(C)C(=O)NC1CCCC1 (stereo not drawn) | -0.482 | 3.59% | -2.08 | -5.47% | -2.58%
C[C@]1(CO)[C@H]2Cc3sc(-c4ccccc4)nc3[C@@H](CC(=O)N3CCOCC3)[C@]2(C)CC[C@H]1O | -3.25 | -1.01% | -0.442 | -4.17% | 1.36%
C#CCNC(=O)C[C@@H]1C[C@@H](C(C)C)[C@H](CNS(C)(=O)=O)C=C1C | -4.56 | -6.77% | -2.54 | -5.74% | -5.49%
O=C(NCc1nnc2n1C(C(=O)NCc1cccnc1)CC2)c1cccnc1 (stereo not drawn) | -3.31 | -3.18% | -3.4 | -11.1% | -6.81%
Cc1ccc(C)c(C(=O)N2CC(c3nnc(-c4ccncc4)o3)C3(CCOCC3)C2)c1 (stereo not drawn) | 0.252 | 1.77% | 2.1 | -2.17% | -1.01%
CCOc1ccc(NC(=O)N2CCn3c(C)ccc3C2CC)cc1 (stereo not drawn) | -0.387 | 0% | -3.66 | 1.64% | -1.18%
CC1(C(=O)NC2CCCCC2)Cn2c(cc3ccccc32)C(=O)N1Cc1ccco1 (stereo not drawn) | -5.02 | 3.94% | -1.38 | -1.1% | -2.32%
COc1ccc(NS(=O)(=O)c2ccc3c(c2)n(C)c(=O)n3C)cc1OC | 11.7 | 0% | 12.3 | 3.08% | 5.19%
COCC1CN(C)CC12CCN(S(=O)(=O)c1cccs1)CC2 (stereo not drawn) | -7.93 | -4.68% | -7.41 | -15.7% | -6.2%
